Reference: PubChem BioAssay AID1347165 (National Center for Advancing Translational Sciences (NCATS), 2019)
The campaign covered roughly 220,000 compounds. About 5,700 (2.6%) were called active. Inconclusive results, whose numbers are uncertain, are shown with a selection of clear calls. The call rests on the fitted dose curve; in most records, active means well fitted inhibition curve with a large enough effect; inconclusive means small, poorly fitted or top-dose-only effect; inactive means no such curve, though single readings can be large or run the other way. A potency beside an inconclusive call is a rough fit, not a confirmed value.

target: Lysine-specific demethylase 5B (Homo sapiens) (UniProt Q9UGL1); assay: Primary screen for KDM5B Histone Demethylases FDH-coupled qHTS; conditions: FDH-coupled NADH fluorescence (FDH is formaldehyde dehydrogenase); activity change, negative = inhibition: at 57.7 µM (top of the series) unless noted; further: nearly all actives have a fitted effect of over 70% in size; on activity change, negative = inhibition: 0% is about no effect
In short: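 Here, H3K4me3 peptide (12.5 µM in substrate mix) is demethylated by KDM5BΔAP, 200 nM final, after 10 min compound exposure. Formaldehyde product is coupled through FDH (0.25 U/mL in mix) to NADH fluorescence; 30-min ΔRFU feeds dose-response curves.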
Potency means the concentration at half of the fitted maximal effect; tags describe the fitted curve by direction and shape.

UniProt Q9UGL1, sequence (Q9UGL1 whole entry, looked up): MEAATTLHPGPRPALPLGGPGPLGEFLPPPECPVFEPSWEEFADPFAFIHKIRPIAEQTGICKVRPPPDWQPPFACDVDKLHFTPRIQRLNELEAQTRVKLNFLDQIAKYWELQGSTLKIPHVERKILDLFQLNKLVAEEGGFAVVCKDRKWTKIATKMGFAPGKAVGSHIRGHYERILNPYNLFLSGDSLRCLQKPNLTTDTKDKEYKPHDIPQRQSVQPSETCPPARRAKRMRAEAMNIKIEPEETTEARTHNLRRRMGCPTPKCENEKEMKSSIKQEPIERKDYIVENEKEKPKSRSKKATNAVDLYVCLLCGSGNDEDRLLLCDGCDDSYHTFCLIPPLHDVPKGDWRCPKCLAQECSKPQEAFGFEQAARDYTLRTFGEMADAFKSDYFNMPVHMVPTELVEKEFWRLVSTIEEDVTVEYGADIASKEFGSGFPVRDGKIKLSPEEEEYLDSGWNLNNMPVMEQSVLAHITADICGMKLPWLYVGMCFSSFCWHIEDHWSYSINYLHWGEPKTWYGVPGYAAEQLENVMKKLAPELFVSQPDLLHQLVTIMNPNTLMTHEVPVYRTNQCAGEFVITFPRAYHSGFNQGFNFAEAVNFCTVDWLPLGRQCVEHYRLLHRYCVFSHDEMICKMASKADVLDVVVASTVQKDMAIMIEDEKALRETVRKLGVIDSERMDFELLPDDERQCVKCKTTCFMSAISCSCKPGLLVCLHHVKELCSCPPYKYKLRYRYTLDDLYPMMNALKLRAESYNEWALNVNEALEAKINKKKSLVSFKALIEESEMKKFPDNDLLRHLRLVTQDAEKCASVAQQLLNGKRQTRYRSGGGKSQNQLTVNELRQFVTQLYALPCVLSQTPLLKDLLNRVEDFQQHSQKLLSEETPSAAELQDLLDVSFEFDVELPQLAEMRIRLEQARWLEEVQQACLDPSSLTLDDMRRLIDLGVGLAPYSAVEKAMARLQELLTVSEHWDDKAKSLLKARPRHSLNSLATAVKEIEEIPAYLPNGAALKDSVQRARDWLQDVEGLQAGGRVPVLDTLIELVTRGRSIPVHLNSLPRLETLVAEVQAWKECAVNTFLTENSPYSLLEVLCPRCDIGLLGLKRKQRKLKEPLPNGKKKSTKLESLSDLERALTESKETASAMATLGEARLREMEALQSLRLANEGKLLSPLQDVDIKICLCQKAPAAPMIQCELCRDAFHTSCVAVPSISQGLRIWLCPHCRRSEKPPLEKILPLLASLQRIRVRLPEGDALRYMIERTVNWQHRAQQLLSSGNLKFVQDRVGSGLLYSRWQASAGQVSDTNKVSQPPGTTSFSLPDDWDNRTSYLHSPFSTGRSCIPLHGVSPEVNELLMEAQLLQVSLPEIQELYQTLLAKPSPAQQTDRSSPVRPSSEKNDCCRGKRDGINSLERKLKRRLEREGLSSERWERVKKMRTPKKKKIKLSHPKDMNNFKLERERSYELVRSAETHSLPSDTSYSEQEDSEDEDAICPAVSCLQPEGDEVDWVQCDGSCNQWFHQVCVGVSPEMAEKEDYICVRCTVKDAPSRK

Compound	Potency	activity change, negative = inhibition
COc1cccc(C(=O)Nc2ccc(-n3nncc3-c3ccccc3)cc2)c1	inconclusive: 14.1 µM [inhibitor, partial curve, poor fit]	
CCc1ccc(NC(=O)c2ccc3c(c2)N(CC)C2CCCCCN2C3=O)cc1 (stereo unspecified)	inconclusive: 25.1 µM [inhibitor, partial curve, poor fit]	
O=C(CC1COCCN1)NCCn1nc(-c2ccccc2)ccc1=O (stereo unspecified)	inconclusive: 28.2 µM [inhibitor, partial curve, poor fit]	
Cc1ccc(CN2C(=O)OC(c3cccc(NC(=O)c4cccs4)c3)C2C(=O)NC2CC2)cc1 (stereo unspecified)	inconclusive: 39.8 µM [inhibitor, single point]	
COc1ccc(CCNC(=O)Cn2c(=O)c3cccn3c3ccc(F)cc32)c(OC)c1	inconclusive: 25.1 µM [inhibitor, partial curve, poor fit]	
Cc1ccc(C)c(-c2nnc(NC(=O)c3ccc4c(c3)OCCO4)o2)c1	inconclusive: 5.62 µM [inhibitor, full curve, poor fit]	
CC1(C(=O)Nc2ccc(F)cc2)CN(Cc2ccccc2)Cc2ccc(N3CCOCC3)nc21 (stereo unspecified)	active: 31.6 µM	
COc1ccc2cc(C(=O)NCc3ccncc3)c(C)nc2c1	inconclusive: 22.4 µM [inhibitor, partial curve, poor fit]	
Cc1ccc(-n2nc3c(N4CCC(C(=O)NC(C)c5ccccc5)CC4)nnc(C)c3c2C)cc1 (stereo unspecified)	inconclusive: 39.8 µM [inhibitor, single point]	
O=C(O)CCS(=O)(=O)C1CCCC1		inactive: 15.1%
CC1Sc2ccc(C(=O)NNC(=O)CSc3cccc4cccnc34)cc2NC1=O (stereo unspecified)	inconclusive: 20 µM [inhibitor, partial curve, poor fit]	
Cc1cnc(CCNS(=O)(=O)Cc2ccccc2F)n1C(C)C		inactive: -2.79%
CC(=O)c1ccc(S(=O)(=O)NCCc2cccc3cccnc23)cc1		inactive: 7.32%
COc1ccc(S(=O)(=O)Oc2ccc3c(c2)O/C(=C\C=C\c2ccccc2)C3=O)cc1	inconclusive: 25.1 µM [inhibitor, partial curve, poor fit]	
CNC(=O)[C@@H](C1CCCCC1)N1CCC[C@H]1C(=O)N1CCN(CCOC)CC1	inconclusive: 11.2 µM [inhibitor, partial curve, poor fit]	
COc1ccc(CCNC(=O)c2cc3c(s2)-c2ccccc2OC3)cc1OC	inconclusive: 28.2 µM [inhibitor, partial curve, poor fit]	
CCOCCCn1c(=N)c(C(=O)NCc2cccnc2)cc2c(=O)n3cc(C)ccc3nc21	inconclusive: 3.55 µM [inhibitor, full curve, poor fit]	
Cc1ccc(NC(=S)Nc2ccccc2)nc1		inactive: -3.33%
NCCn1cc(C(=O)NCc2cc3n(n2)CCN(C2CCCCC2)C3)nn1	inconclusive: 15.8 µM [inhibitor, partial curve, poor fit]	
CCCCCn1nc(C(=O)Nc2ccc(C(=O)NC(C)(C)C)cc2)c2ccccc2c1=O	inconclusive: 39.8 µM [inhibitor, single point]	
Cc1nc(NCc2ccco2)sc1C(=O)NC1CC1		inactive: 12%

Compound	Potency	activity change, negative = inhibition
O=C(/C=C/c1c[nH]c2ccccc12)C(F)(F)F	inconclusive: 39.8 µM [inhibitor, partial curve, poor fit]	
Cc1ccc([N+](=O)[O-])cc1S(=O)(=O)Nc1cccc(C#Cc2cccs2)c1		inactive: -39.2%
COc1ccc(-c2cc(C(F)(F)F)nc(SCC(=O)N3CCCCC3C)n2)cc1OC (stereo unspecified)	inconclusive: 17.8 µM [inhibitor, partial curve, poor fit]	
CCCc1nn2c(=O)cc(CSc3ccccc3NC(=O)c3ccco3)nc2s1		inactive: 5.36%
CC(C)CC(=O)N1CCC(NC(=O)Cc2c[nH]c3ccccc23)CC1		inactive: 11.7%
COC(=O)CNC(c1ccccc1)c1cc(Br)ccc1NC(=O)c1ccccc1 (stereo unspecified)	inconclusive: 35.5 µM [inhibitor, partial curve, poor fit]	
CS(=O)(=O)Nc1cc(-c2noc([C@@H]3CCCN3Cc3ccccc3F)n2)ccn1	inconclusive: 39.8 µM [inhibitor, partial curve, poor fit]	
C[C@]1(CO)[C@H]2Cc3sc(NC(=O)c4c(F)cccc4F)nc3[C@@H](CC(=O)NCc3cccnc3)[C@]2(C)CC[C@H]1O	inconclusive: 28.2 µM [inhibitor, single point]	
CCOC(=O)C1CCCN(C(=O)Cn2ncc3c(C)n(Cc4ccccc4F)c(C)c3c2=O)C1 (stereo unspecified)	inconclusive: 28.2 µM [inhibitor, single point]	
CCCOc1ccc(-c2nc(C#N)c(N3CCN(Cc4ccccc4)CC3)o2)cc1	inconclusive: 31.6 µM [inhibitor, partial curve, poor fit]	
O=C(CN1CCN(CC(=O)Nc2ccccc2C(=O)c2ccccc2)CC1)Nc1ccc(F)cc1		inactive: 10.3%
Cc1ccc(-c2cc(C(=O)Nc3ncccc3C)c3ccccc3n2)s1	inconclusive: 28.2 µM [inhibitor, partial curve, poor fit]	
COc1ccc(NC(=O)CC2Sc3ccccc3NC2=O)cc1 (stereo unspecified)	inconclusive: 39.8 µM [inhibitor, single point]	
CC(=O)Nc1ccccc1-c1nc2ccccc2n(CC(=O)c2ccc(Br)cc2)c1=O	inconclusive: 3.55 µM [inhibitor, full curve, poor fit]	
O=C(Nc1cn[nH]c1)C1CCCN(c2ncccc2C(F)(F)F)C1 (stereo unspecified)		inactive: 5.27%
C=CCOc1ccc(NC(=O)c2ccc(C(C)(C)C)cc2)cc1		inactive: -3.52%
Cc1cn2nc(C(=O)NCc3ccc(C(C)C)cc3)cc2c(=O)[nH]1	inconclusive: 1 µM [inhibitor, partial curve, poor fit]	
COC(=O)CNC(=O)c1nc(-c2ccc(Cl)cc2)c2ccccn12	active: 20 µM	
CC(=O)NC(C(=O)Nc1ccc(SC2CCCC2)cc1)C(C)C (stereo unspecified)		inactive: 23.1%
CCOC(=O)c1cccc(NC(=O)c2cc(S(=O)(=O)N3CCCC(C)C3)cn2C)c1 (stereo unspecified)	inconclusive: 35.5 µM [inhibitor, partial curve, poor fit]	
